PubChem BioAssay AID686978 (National Center for Advancing Translational Sciences (NCATS), 2013)
Several values for one entry are separate records, joined by “and”; a condition that tells them apart may be missing. Identical values can stand only once. About 64,000 (15%) of roughly 420,000 compounds were called active. Inconclusive results, whose numbers are uncertain, are shown with a selection of clear calls. The call rests on the fitted dose curve; in most records, active means well fitted inhibition curve with a large enough effect; inconclusive means small, poorly fitted or top-dose-only effect; inactive means flat fitted curve, though single readings scatter. A potency beside an inconclusive call is a rough fit, not a confirmed value.

Experiment: qHTS for Inhibitors of human tyrosyl-DNA phosphodiesterase 1 (TDP1): qHTS in cells in absence of CPT; further: nearly all actives have a fitted effect of over 55% in size
Conditions: DT40 Tdp1-/- hTDP1 cells, no CPT, ATP luminescence, 48 h; activity change, negative = growth inhibition: at 46.2 µM (top of the series) unless noted
Procedure, shortened: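 Cells were dispensed at 400 per well, compounds added by pin tool, plates incubated ≥48 hr at 37 °C, then CellTiter-Glo added for 30 min at room temperature before luminescence reading. Line: DT40 Tdp1-/- complemented with hTDP1; camptothecin omitted.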
On the % scale 0 is the no-effect control and ±100 the full control effect; potency means the concentration at half of the fitted maximal effect; tags describe the fitted curve by direction and shape.

Row | Structure (SMILES) | Potency | activity change, negative = growth inhibition
1 | Fc1cccc(CN2CCN(c3ccc(Cl)cc3)CC2)c1 | inconclusive: 16.4 µM [inhibitor, single point] | 
2 | CCOC(=O)c1c(C=O)c2ccccc2n1Cc1ccccc1 | inactive | 
3 | CCOC(=O)c1c(C)n(Cc2ccc(F)cc2)c2ccc(O)cc12 | inconclusive: 29.1 µM [inhibitor, single point] | 
4 | O=C1C(=Cc2ccccc2)N2CCC1CC2 | inactive | 
5 | Cc1c(Cl)cccc1NC(=O)c1oc2ccc(S(=O)(=O)N3CCC4(CC3)OCCO4)cc2c1C | active: 4.11 µM | 
6 | COc1ccc(CN2CCc3nc(N4CCN(c5ccc(F)cc5)CC4)ncc3C2)c(OC)c1OC | active: 4.61 µM | 
7 | COc1ccccc1NC(=O)c1cn(CCC#N)nc1-c1cccc(Cl)c1 | inconclusive: 18.4 µM [inhibitor, single point] | 
8 | Cc1[nH]c2ccccc2c1C(=O)CN1CC=C(c2ccccc2)CC1 | inconclusive: 20.6 µM [inhibitor, single point] | 
9 | CC(=O)NCC(N)C(=O)c1ccc(C)cc1 (configuration not stated) | active: 15.8 µM | 
10 | O=C(COc1ccc(Br)cc1)N1CCN(Cc2ccncc2)CC1 | inconclusive: 20.6 µM [inhibitor, single point] | 
11 | O=S(=O)(c1cc(Cl)cc(Cl)c1)N1Cc2cc(-c3cccc(F)c3)ccc2-n2nncc2C1 | inconclusive: 29.1 µM [inhibitor, single point] | 
12 | O=C1/C(=C/c2ccccc2)C[C@@]2(O)[C@H]3Cc4ccc(O)c5c4[C@@]2(CCN3CC2CC2)C1O5 (some centres not stated) | active: 2.59 µM | 
13 | C[C@H](CCC(=O)O)[C@H]1CC[C@H]2[C@@H]3[C@H](O)C[C@@H]4C[C@H](O)CC[C@]4(C)[C@H]3CC[C@]12C | inconclusive: 2.27 µM [inhibitor, single point] | 
14 | COc1cc(C)c(CN2CC=C(c3ccc(F)cc3)CC2)cc1C | inconclusive: 29.1 µM [inhibitor, single point] | 
15 | Cc1ccc(C(=O)Nc2cnn(-c3ccc(C(=O)N(C)Cc4n[nH]c5c4CCCC5)cc3)c2)c(C)c1 | inconclusive: 29.1 µM [inhibitor, single point] | 
16 | C[C@H](CO)N1C[C@H](C)[C@@H](CN(C)Cc2ccccc2)Oc2c(NC(=O)c3ccncc3)cccc2C1=O | active: 23.1 µM | 
17 | CCOC(=O)c1c(/N=C/c2c(O)n(-c3ccc(F)cc3)c(=S)[nH]c2=O)sc2c1CCCC2 |  | inconclusive: -28.8% [inhibitor]
18 | COc1cccc(-c2nn(Cc3ccccc3)cc2C(=O)O)c1 | inactive | 
19 | COc1ccc(CN2Cc3cc(N4CCOCC4)ccc3-n3nncc3C2)cc1 | inconclusive: 29.1 µM [inhibitor, single point] | 
20 | Cc1ccc(N2CCNCC2C)cc1 (configuration not stated) | inconclusive: 29.1 µM [inhibitor, single point] | 
21 | Cc1ccc(-c2nc3ccccc3c(=O)n2-c2ccc(O)cc2)cc1 | active: 4.11 µM | 
22 | C=CCN1C(=O)NC(=O)/C(=C/c2cccn2C)C1=O | inconclusive: 16.4 µM [inhibitor, partial curve] | 
23 | CCCCCC(=O)N[C@@H](c1ccccc1)[C@@H](O)C(=O)O[C@H]1C[C@@]2(O)[C@@H](OC(=O)c3ccccc3)C3[C@](C)(C(=O)[C@H](O)C(=C1C)C2(C)C)[C@@H](OC1OCC(O)C(O)C1O)C[C@H]1OC[C@@]31OC(C)=O (some centres not stated) | active: 0.58 µM | 
24 | COc1ccc(OCc2n[nH]c(=S)n2Cc2ccco2)cc1 | inconclusive: 20.6 µM [inhibitor, single point] | 

Row | Structure (SMILES) | Potency | activity change, negative = growth inhibition
25 | CCOC(=O)C1SC2(C(F)F)CC1(O)c1c(c(OC)c3occc3c1OC)O2 (configuration not stated) | inconclusive: 35.5 µM [inhibitor, single point] | 
26 | Cc1csc2nc(COC(=O)c3ccccc3NC(=O)c3ccc(F)cc3)cc(=O)n12 | inconclusive: 20.6 µM [inhibitor, single point] | 
27 | CS(=O)(=O)CCN1CC2CCCC(C2)C1 | inactive | 
28 | O=C(C[n+]1ccn(CCCNP2(=O)C=C(c3ccccc3)OC(c3ccccc3)=C2)c1)c1ccccc1 | inconclusive: 29.1 µM [inhibitor, single point] | 
29 | Cc1ccccc1NC(=O)NCCN1CC1 | active: 7.31 µM | 
30 | CN1CCN(C(=O)COc2ccc(-c3nc4ccccc4s3)cc2)CC1 | active: 18.4 µM | 
31 | COc1ccc(CNC(=O)Cn2c(SCC(=O)Nc3ccc(C)c(C)c3)nc3ccccc32)cc1 | active: 4.61 µM | 
32 | O=C1CN=C(c2ccccc2Cl)c2cc(Br)ccc2N1 | inconclusive: 20.6 µM [inhibitor, single point] | 
33 | O=C(Oc1ccc2ccc(OC(=O)N3CCCCCC3)cc2c1)N1CCCCCC1 | active: 20.6 µM | 
34 | Cc1ccc(CN2C3CCCC2CC(NC(=O)Nc2cccc(F)c2)C3)cc1 (configuration not stated) | active: 14.6 µM | 
35 | CCOC(=O)C1C2NC(=O)N(Cc3ccccc3)C1(C)Oc1c(OC)cccc12 (configuration not stated) | inactive | 
36 | CNP(=O)(Oc1ccccc1)OC12CC3CC(CC(C3)C1)C2 (configuration not stated) | inactive | 
37 | CCCCC(CC)CNCC(O)c1ccccc1 (configuration not stated) | inactive | 
38 | O=C1NC(=S)N(c2ccccc2)C(=O)/C1=C/c1ccco1 | inconclusive: 13 µM [inhibitor, partial curve, poor fit] | 
39 | O=[N+]([O-])c1cccnc1N1CCCNCC1 | inactive | 
40 | C=CCN(CC=C)C(=O)Nc1ccc(OCC)cc1 | inactive | 
41 | Cc1ccc(-c2nc3ccc(Cl)cc3n2OC(=O)N(C)C)cc1 | inconclusive: 29.1 µM [inhibitor, partial curve] | 
42 | FC(F)(F)c1ccc(CNCCc2c[nH]c3ccccc23)cc1 | inconclusive: 11.6 µM [inhibitor, partial curve] | 
43 | CC1NCCOC1c1ccccc1 (configuration not stated) | inactive | 
44 | Cc1nc2ccccc2c(=O)n1-c1ccc(-c2ccccc2)cc1 | inconclusive: 23.1 µM [inhibitor, single point] | 
45 | C[C@@H](N)Cc1cnc[nH]1 | inconclusive: 23.1 µM [inhibitor, single point] | 
46 | O=c1[nH]c(=S)n(C2CC2)c(O)c1C=NCC1CCCO1 (configuration not stated) | inactive | 
47 | c1ccc(CN2CCC3(CCc4ccccc43)CC2)cc1 | inconclusive: 13.3 µM [inhibitor, partial curve, poor fit] and inconclusive: 18.4 µM [inhibitor, single point] | 
48 | Cn1c2ccccc2c2c(C(=O)N3CCC4(CC3)OCCO4)cn(C3CCCC3)c(=O)c21 | inconclusive: 11.6 µM [inhibitor, partial curve] | 

Row | Structure (SMILES) | Potency | activity change, negative = growth inhibition
49 | Fc1ccc(C2=CCN(C(c3cccs3)c3nnnn3CCc3ccccc3)CC2)cc1 (configuration not stated) | inconclusive: 29.1 µM [inhibitor, single point] | 
50 | Cc1cc(N(CCCl)CCCl)ccc1C=NNC(=O)Cc1cc(=O)oc2cc(O)ccc12 | inconclusive: 29.1 µM [inhibitor, single point] | 
51 | COc1ccc(CCNC2CCCCCC2)cc1 | inconclusive: 29.1 µM [inhibitor, single point] | 
52 | Cc1ccc(CCNC(=O)Cn2nc(C)c3c(C)n(-c4ccc(C)cc4)nc3c2=O)cc1 | inconclusive: 25.9 µM [inhibitor, single point] | 
53 | O=C(CN1CCCCC1)c1cccc(Br)c1 | inactive | 
54 | CN(Cc1c[nH]c2ccccc12)C1CCCCC1 | active: 1.16 µM | 
55 | O=C(c1cc(-c2cccnc2)nc2ccc(Cl)cc12)N1CCC2(CC1)OCCO2 | inconclusive: 10.3 µM [inhibitor, partial curve, poor fit] | 
56 | CCC(C)(C)c1ccc(O)cc1 |  | inconclusive: -32.9% [inhibitor]
57 | CC1CC(OP(O)(=S)c2ccc(N(C)C)cc2NC(=O)c2cccs2)CC(C)(C)C1 (configuration not stated) | inconclusive: 29.1 µM [inhibitor, single point] | 
58 | CC[C@H]1CN2CCC1C[C@H]2[C@H](O)c1ccnc2ccc(OC)cc12 (some centres not stated) | inconclusive: 16.4 µM [inhibitor, partial curve] | 
59 | CCN(CC)c1ccc(/C=C/[N+](=O)[O-])cc1 | active: 16.4 µM | 
60 | CCC(C)(O)C(=O)OC1C(=O)OC2CC3C(C)=CC(=O)C(O)C3(C)C3C4(O)OCC23C1C(C)C4O (configuration not stated) | active: 0.13 µM | 
61 | CC(C)(C)c1ccc(CN2C(=O)CN=C(c3ccccc3)c3ccccc32)cc1 | inconclusive: 20.6 µM [inhibitor, single point] | 
62 | Cc1ncoc1C(=O)NCC1=C(c2ccc3ccccc3c2)C[C@@H]2CC[C@H]1N2Cc1ccco1 | inconclusive: 29.1 µM [inhibitor, single point] | 
63 | CCCCC/C=C\C[C@@H](/C=C/C=C\C/C=C\CCCC(=O)O)OO |  | inactive: 13.9% [at 0.628 µM]
64 | Cc1nc2ccccc2c(=O)n1-c1ccccc1Cl | active: 23.8 µM | 
65 | COc1ccc2[nH]c3c(c2c1)CCN[C@H]3C |  | inconclusive: -36% [inhibitor]
66 | O=[N+]([O-])c1ccccc1CN1CC=C(c2ccc(F)cc2)CC1 | inconclusive: 18.4 µM [inhibitor, single point] | 
67 | Cc1ccsc1C(=O)C1CCCN(Cc2cc(C(C)C)n[nH]2)C1 (configuration not stated) | inconclusive: 2.91 µM [inhibitor, full curve, poor fit] | 
68 | CN1CCC2(CC1)c1ccccc1-c1ccccc12 | active: 14.6 µM | 
69 | O=C1N[C@H](Cc2ccccc2)C(=O)N2[C@@H]3[C@H](C[C@@H]12)c1ccccc1N3OOSc1ccccc1 | active: 18.4 µM | 
70 | O=c1[nH]c(=O)n(CCc2ccccc2)c(O)c1/C=N/N1CCOCC1 | inactive | 
71 | Cc1cccc(-n2c(O)c(C=NC34CN5CN(CN(C5)C3)C4)c(=O)[nH]c2=O)c1 | inactive | 
72 | O=C(Oc1ccc(Cl)cc1)N1CCOCC1 | inconclusive: 29.1 µM [inhibitor, single point] | 
